Measurements published in patent US20090117104A1 (published 2009).

Molecular target: T1, mutated human GLP-2R (human, UniProt O95838 1-553)
T1 chain: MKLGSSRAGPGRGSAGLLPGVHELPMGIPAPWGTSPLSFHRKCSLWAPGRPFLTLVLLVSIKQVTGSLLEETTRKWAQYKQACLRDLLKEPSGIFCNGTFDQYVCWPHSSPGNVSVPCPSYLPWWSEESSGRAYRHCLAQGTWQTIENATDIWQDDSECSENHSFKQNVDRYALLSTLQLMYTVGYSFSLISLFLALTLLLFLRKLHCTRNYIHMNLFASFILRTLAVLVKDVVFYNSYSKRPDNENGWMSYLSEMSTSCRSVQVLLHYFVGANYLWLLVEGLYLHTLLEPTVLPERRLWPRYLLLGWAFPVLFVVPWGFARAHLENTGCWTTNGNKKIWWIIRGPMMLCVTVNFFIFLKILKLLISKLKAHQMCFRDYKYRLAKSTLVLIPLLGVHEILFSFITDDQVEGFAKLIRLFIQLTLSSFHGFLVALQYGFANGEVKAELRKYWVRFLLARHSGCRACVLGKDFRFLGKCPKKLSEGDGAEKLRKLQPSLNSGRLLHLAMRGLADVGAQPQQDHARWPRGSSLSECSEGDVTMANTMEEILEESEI
Assay: cell-based or functional assay

- potency in the cAMP expression assay relative to the corresponding peptide: ~4 fold less
B1: A2G GLP-2 IgG4 mimetibody (Fc fusion)
chain: HGDGSFSDEMNTILDNLAARDFINWLIQTKITDGSGGGSGTLVTVSS[in this place human IgG4 Fc with S228P F234A L235A (EU numbers)]
